Source: patent US20250368649A1, “TETRAHYDROPYRIDOPYRIMIDINE PAN-KRAS INHIBITORS” (Mirati Therapeutics, Inc., priority 2022, published 2025)

Experiments:
KRas G12S = KRas G12S (Homo sapiens, UniProt P01116, G12S); assay type: binding; details: for inhibition at 0.01 µM: single point, 10 nM compound, read-out: Binding to KRas (% inhibition at 10 nM) G12S
KRas Q61H = KRas Q61H (Homo sapiens, UniProt P01116, Q61H); assay: KRas binding assay (TR-FRET displacement), KRas Q61H; details: for inhibition at 0.01 µM: single point, 10 nM compound
A549 cells = assay: Inhibition of KRas-mediated phosphorylation of ERK (Cisbio HTRF pERK), A549 cells; assay type: cell-based; details: Homo sapiens; for inhibition at 0.1 µM: single point at 100 nM, 3 hrs compound incubation; for IC50: A549, 3 h, 3 hr compound incubation, Cisbio pERK HTRF
ASPC1 cells = assay: Inhibition of KRas-mediated phosphorylation of ERK (Cisbio HTRF pERK), ASPC1 cells; assay type: cell-based; details: Homo sapiens, AsPC-1 cells; for IC50: ASPC1, 3 h, 3 hr compound incubation, Cisbio pERK HTRF; for inhibition at 0.1 µM: ASPC1, single point at 100 nM, 3 hrs compound incubation
KRas G13D = KRas G13D (Homo sapiens, UniProt P01116, G13D); assay type: binding; details: for inhibition at 0.01 µM: single point, 10 nM compound, read-out: Binding to KRas (% inhibition at 10 nM) G13D
PSN1 cells = assay: Inhibition of KRas-mediated phosphorylation of ERK (Cisbio HTRF pERK), PSN1 cells; assay type: cell-based; details: Homo sapiens, PSN1, 3 h, 3 hour compound incubation, Cisbio pERK HTRF
Description: (§1) Inhibition of KRas Phosphorylation of ERK (HTRF) by Exemplary Compounds of Formula (I) Cisbio HTRF Advanced pERK Assay Catalog #64AERPEH • Cells: MKN1, PSN1 • Procedure: • Day 1: Seed 6,000 cells/well -25 µl/well in 384-well white solid bottom plate; RPM1_10% FBS.

H727 cells = assay: Inhibition of KRas-mediated phosphorylation of ERK (Cisbio HTRF pERK), H727 cells; assay type: cell-based; details: Homo sapiens; for IC50: NCI-H727, 3 h, 3 hr compound incubation, Cisbio pERK HTRF; for inhibition at 0.1 µM: NCI-H727, single point at 100 nM, 3 hrs compound incubation
KRas G12A = KRas G12A (Homo sapiens, UniProt P01116, G12A); assay type: binding; details: for inhibition at 0.01 µM: single point, 10 nM compound, read-out: Binding to KRas (% inhibition at 10 nM) G12A
H358 cells = assay: Inhibition of KRas-mediated phosphorylation of ERK (Cisbio HTRF pERK), H358 cells; assay type: cell-based; details: Homo sapiens; for inhibition at 0.1 µM: NCI-H358, single point at 100 nM, 3 hrs compound incubation; for IC50: NCI-H358, 3 h, 3 hr compound incubation, Cisbio pERK HTRF
H460 cells = assay: Inhibition of KRas-mediated phosphorylation of ERK (Cisbio HTRF pERK), H460 cells; assay type: cell-based; details: Homo sapiens; for IC50: NCI-H460, 3 h, 3 hr compound incubation, Cisbio pERK HTRF; for inhibition at 0.1 µM: NCI-H460, single point at 100 nM, 3 hrs compound incubation
KRas WT = KRas WT (Homo sapiens, UniProt P01116); assay: KRas binding assay (TR-FRET displacement), KRas WT; details: for inhibition at 0.01 µM: single point, 10 nM compound
HCT116 cells = assay: Inhibition of KRas-mediated phosphorylation of ERK (Cisbio HTRF pERK), HCT116 cells; assay type: cell-based; details: Homo sapiens; for IC50: HCT-116, 3 h, 3 hr compound incubation, Cisbio pERK HTRF; for inhibition at 0.1 µM: HCT-116, single point at 100 nM, 3 hrs compound incubation
MKN1 cells = assay: Inhibition of KRas-mediated phosphorylation of ERK (Cisbio HTRF pERK), MKN1 cells; assay type: cell-based; details: Homo sapiens, MKN-1, 3 hour compound incubation
Description: as §1

KRas G12C = KRas G12C (Homo sapiens, UniProt P01116, G12C); assay type: binding; details: for inhibition at 0.01 µM: single point, 10 nM compound, read-out: Binding to KRas (% inhibition at 10 nM) G12C

| Structure (SMILES) | inhibition at 0.01 µM (KRas G12S) [%] | inhibition at 0.01 µM (KRas Q61H) [%] | IC50 (ASPC1 cells) [nM] | inhibition at 0.01 µM (KRas G13D) [%] | IC50 (PSN1 cells) [nM] | IC50 (H727 cells) [nM] | inhibition at 0.01 µM (KRas G12A) [%] | IC50 (H460 cells) [nM] | inhibition at 0.01 µM (KRas WT) [%] | IC50 (HCT116 cells) [nM] | IC50 (MKN1 cells) [nM] | inhibition at 0.01 µM (KRas G12C) [%] | IC50 (A549 cells) [nM] | IC50 (H358 cells) [nM] | inhibition at 0.1 µM (A549 cells) [%] | inhibition at 0.1 µM (H358 cells) [%] | inhibition at 0.1 µM (H460 cells) [%] | inhibition at 0.1 µM (HCT116 cells) [%] | also measured |
| --- | --- | --- | --- | --- | --- | --- | --- | --- | --- | --- | --- | --- | --- | --- | --- | --- | --- | --- | --- |
| CCc1c(F)ccc2cc(O)cc(N3CCc4c(nc(OC[C@@]56CCCN5C[C@H](F)C6)nc4N4CCCn5nc(C(=O)N6CC7CC6CCO7)cc5C4)C3)c12 (stereo partly drawn) [Example 322, 2-oxa-6-azabicyclo[3.2.1]octan-6-yl(5-(7-(8-ethyl-7-fluoro-3-hydroxynaphthalen-1-yl)-2-(((2R,7aS)-2-fluorohexahydro-1H-pyrrolizin-7a-yl)methoxy)-5,6,7,8-tetrahydropyrido[3,4-d]pyrimidin-4-yl)-5,6,7,8-tetrahydro-4H-pyrazolo[1,5-a][1,4]diazepin-2-yl)methanone] | 99 | 98 | 1 | 97 | 1300 | 2 | 97 | 23 | 97 | 80 | 3.1 | 99 | 12 | 2 | 86 | 104 | 88 | 77 | inhibition at 0.1 µM (ASPC1 cells): 98%; inhibition at 0.1 µM (H727 cells): 80% |
| CCc1c(F)ccc2cc(O)cc(N3CCc4c(nc(OC[C@@]56CCCN5C[C@H](F)C6)nc4N4CCCn5nc(C(=O)N6CC7CCCC6C7)cc5C4)C3)c12 (stereo partly drawn) [Example 328, 6-azabicyclo[3.2.1]octan-6-yl(5-(7-(8-ethyl-7-fluoro-3-hydroxynaphthalen-1-yl)-2-(((2R,7aS)-2-fluorohexahydro-1H-pyrrolizin-7a-yl)methoxy)-5,6,7,8-tetrahydropyrido[3,4-d]pyrimidin-4-yl)-5,6,7,8-tetrahydro-4H-pyrazolo[1,5-a][1,4]diazepin-2-yl)methanone] | 95 | 91 | 11 | 91 | 5570 | 14 | 87 | – | 88 | – | 23.5 | 96 | – | – | 72 | 94 | 54 | 8 | – |
| O=S1(=O)NCC2(CCCN(c3nc(OC[C@@]45CCCN4C[C@H](F)C5)nc4c3CCN(c3c5ccccc5cc5[nH]ncc35)C4)C2)N1 (stereo partly drawn) [Example 612, 7-(7-(1H-benzo[f]indazol-4-yl)-2-(((2R,7aS)-2-fluorotetrahydro-1H-pyrrolizin-7a(5H)-yl)methoxy)-5,6,7,8-tetrahydropyrido[3,4-d]pyrimidin-4-yl)-2-thia-1,3,7-triazaspiro[4.5]decane 2,2-dioxide] | – | – | 58 | – | 1140 | 41 | – | 129 | – | 92 | 19.4 | – | 83 | 16 | – | – | – | – | IC50 (KRas G12S; TR-FRET displacement, read-out: Binding to KRas (IC50 nM) G12S): < 2 nM; IC50 (KRas Q61H; TR-FRET displacement): 10 nM; IC50 (KRas G13D; TR-FRET displacement, read-out: Binding to KRas (IC50 nM) G13D): < 2 nM; IC50 (KRas G12A; TR-FRET displacement, read-out: Binding to KRas (IC50 nM) G12A): < 2 nM; IC50 (KRas WT; TR-FRET displacement): 8 nM; IC50 (KRas G12C; TR-FRET displacement, read-out: Binding to KRas (IC50 nM) G12C): < 2 nM |

More lines, main results first:

| inhibition at 0.01 µM (KRas G12S) [%] | inhibition at 0.01 µM (KRas Q61H) [%] | IC50 (ASPC1 cells) [nM] | inhibition at 0.01 µM (KRas G13D) [%] | IC50 (PSN1 cells) [nM] | IC50 (H727 cells) [nM] | inhibition at 0.01 µM (KRas G12A) [%] | IC50 (H460 cells) [nM] | inhibition at 0.01 µM (KRas WT) [%] | IC50 (HCT116 cells) [nM] | IC50 (MKN1 cells) [nM] | inhibition at 0.01 µM (KRas G12C) [%] | IC50 (A549 cells) [nM] | IC50 (H358 cells) [nM] | Structure (SMILES) | inhibition at 0.1 µM (A549 cells) [%] | inhibition at 0.1 µM (H358 cells) [%] | inhibition at 0.1 µM (H460 cells) [%] | inhibition at 0.1 µM (HCT116 cells) [%] | also measured |
| --- | --- | --- | --- | --- | --- | --- | --- | --- | --- | --- | --- | --- | --- | --- | --- | --- | --- | --- | --- |
| 80 | 63 | 28 | 70 | > 10000 | 109 | 71 | 79 | 65 | 257 | 49.4 | 88 | – | – | CCc1c(F)ccc2cc(O)cc(N3CCc4c(nc(OC[C@@]56CCCN5C[C@H](F)C6)nc4N4CCCn5nc(NC)c(Br)c5C4)C3)c12 [Example 394, 4-(4-(3-bromo-2-(methylamino)-7,8-dihydro-4H-pyrazolo[1,5-a][1,4]diazepin-5(6H)-yl)-2-(((2R,7aS)-2-fluorohexahydro-1H-pyrrolizin-7a-yl)methoxy)-5,6-dihydropyrido[3,4-d]pyrimidin-7(8H)-yl)-5-ethyl-6-fluoronaphthalen-2-ol] | 57 | 80 | – | – | – |
| 81 | 86 | 78 | 87 | > 10000 | 296 | 61 | – | 84 | – | 14.7 | 77 | – | – | CCc1c(F)ccc2cc(O)cc(N3CCc4c(nc(OC[C@@]56CCCN5C[C@H](F)C6)nc4N4CCCn5nc(S(=O)(=O)N(C)C)cc5C4)C3)c12 [Example 326, 5-(7-(8-ethyl-7-fluoro-3-hydroxynaphthalen-1-yl)-2-(((2R,7aS)-2-fluorohexahydro-11H-pyrrolizin-7a-yl)methoxy)-5,6,7,8-tetrahydropyrido[3,4-d]pyrimidin-4-yl)-N,N-dimethyl-5,6,7,8-tetrahydro-4H-pyrazolo[1,5-a][1,4]diazepine-2-sulfonamide] | 34 | 13 | 48 | 26 | – |
| 99 | 99 | 2 | 98 | 1560 | 2 | 97 | 22 | 98 | 52 | 4.4 | 99 | 14 | 1 | CCc1c(F)ccc2cc(O)cc(N3CCc4c(nc(OC[C@@]56CCCN5C[C@H](F)C6)nc4N4CCCn5nc(C(=O)N6CC7CC6CO7)cc5C4)C3)c12 (stereo partly drawn) [Example 323, (2-oxa-5-azabicyclo[2.2.1]heptan-5-yl)(5-(7-(8-ethyl-7-fluoro-3-hydroxynaphthalen-1-yl)-2-(((2R,7aS)-2-fluorotetrahydro-1H-pyrrolizin-7a(5H)-yl)methoxy)-5,6,7,8-tetrahydropyrido[3,4-d]pyrimidin-4-yl)-5,6,7,8-tetrahydro-4H-pyrazolo[1,5-a][1,4]diazepin-2-yl)methanone] | 96 | 102 | 81 | 72 | inhibition at 0.1 µM (ASPC1 cells): 102%; inhibition at 0.1 µM (H727 cells): 77% |
| 98 | 95 | 4 | 94 | 4630 | 4 | 95 | 35 | 94 | 92 | 4.6 | 99 | 19 | 4 | CCc1c(F)ccc2cc(O)cc(N3CCc4c(nc(OC[C@@]56CCCN5C[C@H](F)C6)nc4N4CCCn5nc(C(=O)NC(C)C)c(F)c5C4)C3)c12 [Example 366, 5-(7-(8-ethyl-7-fluoro-3-hydroxynaphthalen-1-yl)-2-(((2R,7aS)-2-fluorohexahydro-1H-pyrrolizin-7a-yl)methoxy)-5,6,7,8-tetrahydropyrido[3,4-d]pyrimidin-4-yl)-3-fluoro-N-isopropyl-5,6,7,8-tetrahydro-4H-pyrazolo[1,5-a][1,4]diazepine-2-carboxamide] | – | – | 59 | 37 | – |
